Experimental data: publication PMC4336329 (PLoS ONE, 2015)
Among all 310,000 compounds or so, about 2,200 (0.71%) showed an effect of 50% or more. Effects have a minus sign here. The list shows a part of the results.

target: human ether-à-go-go-related gene (hERG) potassium channel (human, UniProt Q12809); assay: primary screen, population patch clamp on CHO cells stably expressing hERG
Sequence (Q12809 whole entry, looked up): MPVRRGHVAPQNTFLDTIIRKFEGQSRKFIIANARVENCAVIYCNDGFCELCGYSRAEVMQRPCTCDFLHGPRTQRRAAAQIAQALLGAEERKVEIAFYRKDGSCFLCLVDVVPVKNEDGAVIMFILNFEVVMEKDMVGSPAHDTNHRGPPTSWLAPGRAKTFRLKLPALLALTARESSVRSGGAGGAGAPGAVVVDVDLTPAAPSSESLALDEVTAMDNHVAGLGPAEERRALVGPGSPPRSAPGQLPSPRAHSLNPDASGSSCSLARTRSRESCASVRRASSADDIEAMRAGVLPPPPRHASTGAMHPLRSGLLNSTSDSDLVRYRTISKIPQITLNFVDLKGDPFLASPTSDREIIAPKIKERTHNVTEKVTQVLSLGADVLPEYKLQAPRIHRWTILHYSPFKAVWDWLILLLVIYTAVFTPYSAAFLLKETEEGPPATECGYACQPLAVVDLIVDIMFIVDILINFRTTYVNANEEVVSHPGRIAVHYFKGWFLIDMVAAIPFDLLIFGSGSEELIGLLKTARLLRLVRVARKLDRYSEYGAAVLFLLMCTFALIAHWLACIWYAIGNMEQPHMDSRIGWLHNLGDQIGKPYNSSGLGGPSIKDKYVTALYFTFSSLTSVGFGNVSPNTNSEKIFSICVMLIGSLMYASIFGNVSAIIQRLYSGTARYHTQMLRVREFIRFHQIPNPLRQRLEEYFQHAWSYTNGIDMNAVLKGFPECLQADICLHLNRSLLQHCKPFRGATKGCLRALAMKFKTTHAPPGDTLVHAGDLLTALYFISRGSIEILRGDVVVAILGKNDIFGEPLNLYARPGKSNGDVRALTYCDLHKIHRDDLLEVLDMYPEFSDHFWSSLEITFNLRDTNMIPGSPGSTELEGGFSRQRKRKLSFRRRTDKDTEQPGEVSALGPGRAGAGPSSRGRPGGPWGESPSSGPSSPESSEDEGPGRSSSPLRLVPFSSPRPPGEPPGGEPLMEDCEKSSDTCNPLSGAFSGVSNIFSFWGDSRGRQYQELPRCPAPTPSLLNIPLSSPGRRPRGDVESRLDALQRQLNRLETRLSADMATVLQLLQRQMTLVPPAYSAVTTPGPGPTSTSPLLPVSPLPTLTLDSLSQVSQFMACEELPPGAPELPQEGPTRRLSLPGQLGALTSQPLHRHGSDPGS

Row | SMILES | hERG current change (%, negative = inhibition) at 1uM [%]
1 | CC(C)n1cnnc1SCC(=O)NC(=O)c1ccccc1 | 4.17
2 | COc1cccc(-c2nc(CS(=O)(=O)CC(=O)NCc3ccccc3OC)c(C)o2)c1 | 14.2
3 | Cn1nc(C(=O)N2CCN(c3ccc([N+](=O)[O-])cc3)CC2)c2c1-c1ccccc1S(=O)(=O)C2 | 1.12
4 | COc1cccc(CNCc2cccnc2)c1OCc1ccccc1.Cl | 29.4
5 | O=C(O)Cc1ccc(NC(=O)Nc2ccc3c(c2)OCO3)cc1 | 13.2
6 | Cc1ccc(S(=O)(=O)CCC(=O)Nc2ccc(F)cc2)cc1 | 10.9
7 | N#CCSc1nnc(-c2ccccc2)c(-c2ccccc2)n1 | 10.8
8 | C=CCOC(=O)C1=C(C)NC(C)=C(C(=O)OCC=C)C1c1ccc(C)o1 | 7.99
9 | CCC(C)NC(=O)C1CN(S(=O)(=O)c2ccccc2)CCN1S(=O)(=O)c1ccccc1 (stereo not drawn) | 4.36
10 | CS(=O)(=O)c1ncc(Cl)c(C(=O)Nc2ccc(OC(F)F)cc2)n1 | 17.2
11 | COc1ccc(C(=O)NNC(=O)c2cc(C)nc3ccccc23)cc1 | 9.65
12 | Cc1ccc(F)c(NC=C2C(=O)OC(C)(C)OC2=O)c1 | -5.32
13 | Cc1cc(C)c(C(=O)C(C)OC(=O)c2ccccn2)cc1C (stereo not drawn) | 14.6
14 | CN(CC(=O)Nc1cccc(F)c1)C(=O)c1cc(-c2cccs2)nn1-c1ccccc1 | 11.3
15 | CCCCC(=O)Nc1cccn2ncnc12 | 11.9
16 | CCOc1ccccc1C(=O)NC1CC2CCCC(C1)N2C1CC1 (stereo not drawn) | 9.64
17 | CC(C)(C)c1cc(C=C(C#N)C#N)cc(C(C)(C)C)c1O | 15.1
18 | COc1cc(CN2CC(=O)N(c3ccc(C)cc3)C2=S)cc(OC)c1OC | 7.3
19 | O=C(O)/C(=C\c1ccccc1)c1ccccc1 | 6.19
20 | CC(C)OC(=O)/C(=C\c1ccccc1)NC(=O)c1ccccc1 | 9.47
21 | CCCCOC(=O)Nc1ccc(S(=O)(=O)Nc2cc(C)nc(C)n2)cc1 | 12.6
22 | COc1ccc(-n2c(-c3ccc(Cl)cc3)c[nH]c2=S)cc1 | 22.7
23 | COc1ccc(C(=O)NCC2(c3ccccc3)CCCC2)c(OC)c1 | -1.75

Row | SMILES | hERG current change (%, negative = inhibition) at 1uM [%]
24 | CCOC(=O)c1ccc(NC(=O)CC2SCCNC2=O)cc1 (stereo not drawn) | 14.1
25 | C=CCn1c(SCC(=O)Nc2ccc3c(c2)CCC3)nc2ccccc2c1=O | 11
26 | CC(OC(=O)Cn1cnc2ccccc2c1=O)C(=O)N(C)c1ccccc1 (stereo not drawn) | 3.98
27 | NS(=O)(=O)c1ccc(CNC(=O)Cn2nc(C(F)F)cc2C(F)F)cc1 | 3.37
28 | CC1=CC=CC2=NC(=O)CC(C)(C(=O)N(CC(=O)NC3CCCC3)c3ccc(F)cc3)N12 (stereo not drawn) | 11.1
29 | COc1ccc(C(=O)NCC2(c3ccccc3)CCOCC2)cc1[N+](=O)[O-] | 5.38
30 | O=C(Nc1ccccc1C(=O)NCC1CCCO1)c1ccc(Cl)cc1Cl (stereo not drawn) | -4.44
31 | Cc1nnc(C)c2c(C)n(-c3ccc(Cl)c(N)c3)c(C)c12 | 4.32
32 | COC(=O)c1c(NC(=O)c2ccc(S(=O)(=O)N3CCOCC3)cc2)sc2c1CCN(C)C2.Cl | -1.22
33 | O=C1c2cccc3c(O)ccc(c23)C(=O)N1c1ccc(Cl)cc1 | 4.49
34 | O=C(N[C@@H](Cc1c[nH]c2ccccc12)C(=O)NC1CC1)c1ccccc1Cl | 12.5
35 | CSc1cccc(-c2nnc(NC(=O)c3cccc(N4C(=O)CCC4=O)c3)o2)c1 | 12.9
36 | COc1ccc(C(=O)N2CCCC2)cc1 | 3.13
37 | CCCCN1C(N)=NC[C@@H]1Cc1ccccc1 | 7.48
38 | CCOc1ccc2nc(SCC(=O)NC3CCCc4ccccc43)sc2c1 (stereo not drawn) | 13.2
39 | C=CCc1ccc(OCCCCN2CC(C)CC(C)C2)c(OC)c1.O=C(O)C(=O)O (stereo not drawn) | -18.2
40 | CC(C)(C)OC(=O)N1CCC(Cc2cc(-c3ccc(Cl)cc3)no2)(C(=O)O)CC1 | 3.67
41 | Cc1cc(C)cc(NC(=O)c2sc3nc(C)cc(C)c3c2N)c1 | 16.4
42 | CC(C)OC(=O)CC(=O)CSc1nc(-c2ccc(F)cc2)cc(-c2ccccc2)c1C#N | 5.99
43 | CN(CC(=O)Nc1c(Cl)cccc1Cl)C(=O)c1cc2ccccc2cc1O | 8.94
44 | CC(=O)c1c(O)c2ccccc2n(C(C)C)c1=O | 17.2
45 | Cc1cccc(NC(=O)NCCN2CCCCC2)c1 | -1.66
46 | CC1CN(C(=O)N2c3ccccc3Sc3ccccc32)C(C)CC1=O (stereo not drawn) | 12.6

Row | SMILES | hERG current change (%, negative = inhibition) at 1uM [%]
47 | O=C(NC(=S)Nc1ccc(N2CCOCC2)cc1)c1cccc(Cl)c1Cl | 3.33
48 | O=C(NCCCN=C1NS(=O)(=O)c2ccccc21)c1ccc(F)cc1 | 15
49 | O=C(OCc1nc2scc(-c3ccccc3)c2c(=O)[nH]1)c1cc(Cl)ccc1[N+](=O)[O-] | 17.1
50 | c1ccc2nc3c(nc2c1)CCCC3 | 5.84
51 | CCOC(=O)C1=C(C)OC(N)=C(C#N)C1c1cc(SCC)oc1C (stereo not drawn) | -0.0227
52 | CC1(C)CNc2cc(N)ccc2S1 | 17.4
53 | COc1ccc(/C=N/NC(=O)c2cc(-c3cccn3C)n[nH]2)cc1OC | -5.43
54 | O=C1N(C2CCCC2)C[C@@H]2C[C@@H](c3cn[nH]c3-c3ccc(Cl)cc3)N3CCC[C@@]123 | -0.707
55 | COCC(=O)OCn1nnc2ccccc2c1=O | 2.02
56 | Cc1c(NC(=O)CN2C(=O)NC(C)(c3ccc(Cl)cc3)C2=O)c(=O)n(-c2ccccc2)n1C (stereo not drawn) | -8.22
57 | COCCn1cnc2c1c(=O)[nH]c(=O)n2Cc1ccccc1 | 16.7
58 | CC1CCCCN1C(=O)CSc1nnc(-c2c[nH]c3ccccc23)o1 (stereo not drawn) | 1.71
59 | Cc1ccc(NC(=S)N2CCN(CCN3C(=O)c4cccc5cccc(c45)C3=O)CC2)cc1 | 18.8
60 | Br.OCCn1c(-c2ccc3c(c2)OCO3)csc1=Nc1ccccc1 | 17.3
61 | CC1(S(=O)(=O)[O-])CC(=O)c2ccccc2C1=O.O.[Na+] (stereo not drawn) | 2.35
62 | O=C(Cn1ncc2c3ccccc3n(Cc3cccc(Cl)c3)c2c1=O)NCC1CCCO1 (stereo not drawn) | 19.7
63 | CCc1nccn1S(=O)(=O)c1ccc(Br)cc1Br | -8.65
64 | CCC(C(=O)OCC(=O)Nc1cc(OC)ccc1OC)c1ccccc1 (stereo not drawn) | 16.2
65 | COc1ccc(N(CC(=O)N/N=C(\C)c2ccc(C)cc2)S(=O)(=O)c2ccccc2)cc1 | 17.9
66 | C=CCn1c(NCCO)nc2sc3c(c2c1=O)CCC3 | 8.83
67 | O=C(CSc1ccc2c(c1)OCCO2)Nc1cccnc1Cl | 10.5
68 | CSc1ncc(/C=C2/C(=O)NC(=O)N(C3CCCCC3)C2=O)cn1 | -4.38
69 | O=C(CN1CCN(S(=O)(=O)c2ccc(Cl)cc2)CC1)c1ccc(O)c(O)c1 | -24.8

Row | SMILES | hERG current change (%, negative = inhibition) at 1uM [%]
70 | O=C(NCc1ccccn1)C1Nc2ccc(OC(F)(F)F)cc2C2C=CCC12 (stereo not drawn) | 13.5
71 | C=CCn1c(SCc2ccc(OC)cc2)nnc1-c1cccnc1 | -16
72 | CN(C)CCC(=O)c1ccc(Cl)cc1.Cl | 4.49
73 | CCn1cc(C(=O)NCCC(=O)NCCCO)c(=O)c2cc3c(cc21)OCO3 | 13
74 | COc1ccc(C(=O)N(C)Cc2ccc(C)o2)cc1OC1CCN(C(C)=O)CC1 | 9.5
75 | CC(C)Oc1ccc(NC(=O)CCC(=O)O)cc1 | 9.32
76 | C/C=C/c1ccc(OCC(=O)Nc2cc(OC)c(OC)c(OC)c2)c(OC)c1 | 6.93
77 | NS(=O)(=O)c1ccc(NS(=O)(=O)c2ccc(C3CNC(=O)C3)cc2)cc1 (stereo not drawn) | 7.74
78 | Cc1cc(NC(=O)CCCN2C(=O)c3cccnc3C2=O)no1 | 5.85
79 | O=C(NC(=S)Nc1cc([N+](=O)[O-])ccc1Cl)c1ccccc1 | 0.486
80 | CCOc1cc(C2NC(=O)CCC2[N+](=O)[O-])cc(Br)c1OCC (stereo not drawn) | -2.61
81 | CCOc1ccccc1OCC(=O)Nc1ccc2[nH]c(=O)[nH]c2c1 | 17.6
82 | COCCNC(=O)c1ccc2c(c1)nc(C)n2-c1cccc(Cl)c1 | 12.2
83 | O=C(Nn1c(SCc2ccccc2F)nc2ccsc2c1=O)c1ccccc1 | 7.44
84 | CCc1oc(C(=O)O)cc1COC | -4.45
85 | CC(=O)N1c2ccccc2C2(C)C(C1(C)C)C2(Cl)Cl (stereo not drawn) | 6.19
86 | CC(C)CC(=O)NCCCN1CCN(CCCNC(=O)CC(C)C)CC1 | 14.5
87 | CC(c1nnc(SCC(=O)NC(=O)NCc2ccco2)n1-c1ccc(Cl)cc1)N(C)C (stereo not drawn) | 2.72
88 | Cc1cc(OC(C)C(=O)N2CCN(c3ccc(F)cc3)CC2)c2c(C)cc(=O)oc2c1 (stereo not drawn) | 2.1
89 | CCCc1nc2c([nH]1)c(=O)n(C)c(=O)n2C | 18.6
90 | CCc1nn(-c2cc(Cl)ccc2OC)c2c1C(=O)CCC2 | -0.087
